Results on 30 compounds are retold here after US9714221B1 (priority 2016, dated 2017).

Structures can show the parent of a compound that is named as a salt.

This assay deals with MCF7 cells (breast tumor cells) WT. The assay is described as follows: cells. As to conditions: Homo sapiens, read-out: proliferation MCF7 (WT) IC50 (nM).
As to `Oc1ccc2c(c1F)CCCC(c1ccc(OC(F)F)c(F)c1)=C2c1ccc(O[C@H]2CCN(CCCF)C2)cc1` [Example 79, 6-[4-(difluoromethoxy)-3-fluoro-phenyl]-1-fluoro-5-[4-[(3S)-1-(3-fluoropropyl)pyrrolidin-3-yl]oxyphenyl]-8,9-dihydro-7H-benzo[7]annulen-2-ol], the IC50 turned out to be 6 nM.
With `O=C(O)c1ccc2c(c1)CCCC(c1ccc(OC(F)(F)F)cc1)=C2c1ccc(O[C@H]2CCN(CCCF)C2)cc1` [Example 159, 5-[4-[(3S)-1-(3-fluoropropyl)pyrrolidin-3-yl]oxyphenyl]-6-[4-(trifluoromethoxy)phenyl]-8,9-dihydro-7H-benzo[7]annulen-2-carboxylic acid] the figure was 8 nM.
As to `CCOc1ccc(C2=C(c3ccc(O[C@H]4CCN(CCCF)C4)cc3)c3ccc(O)cc3CCC2)c(C)c1` [Example 27, 6-(4-ethoxy-2-methyl-phenyl)-5-[4-[(3S)-1-(3-fluoropropyl)pyrrolidin-3-yl]oxyphenyl]-8,9-dihydro-7H-benzo[7]annulen-2-ol], the IC50 stood at 0.2 nM.
Regarding `Oc1ccc2c(c1)CCCC(C1=CCNCC1)=C2c1ccc(O[C@H]2CCN(CCCF)C2)cc1` [Example 26, 5-[4-[(3S)-1-(3-fluoropropyl)pyrrolidin-3-yl]oxyphenyl]-6-(1,2,3,6-tetrahydropyridin-4-yl)-8,9-dihydro-7H-benzo[7]annulen-2-ol], the IC50 was determined as 25 nM.
`O=C(O)c1ccc2c(c1F)CCCC(c1ccc(F)cc1Cl)=C2c1ccc(O[C@H]2CCN(CCCF)C2)cc1` [Example 213, 6-(2-chloro-4-fluoro-phenyl)-1-fluoro-5-[4-[(3S)-1-(3-fluoropropyl)pyrrolidin-3-yl]oxyphenyl]-8,9-dihydro-7H-benzo[7]annulene-2-carboxylic acid]: the IC50 came to 1 nM.
The figure for `Oc1ccc2c(c1)CCCC(c1cccc(Cl)c1F)=C2c1ccc(O[C@H]2CCN(CCCF)C2)cc1` [Example 39, 6-(3-chloro-2-fluoro-phenyl)-5-[4-[(3S)-1-(3-fluoropropyl)pyrrolidin-3-yl]oxyphenyl]-8,9-dihydro-7H-benzo[7]annulen-2-ol] is 0.2 nM.
With `COc1ncc(C2=C(c3ccc(O[C@H]4CCN(CCCF)C4)cc3)c3ccc(O)cc3CCC2)cc1Cl` [Example 99, 6-(5-chloro-6-methoxy-3-pyridyl)-5-[4-[(3S)-1-(3-fluoropropyl)pyrrolidin-3-yl]oxyphenyl]-8,9-dihydro-7H-benzo[7]annulen-2-ol] the figure was 0.4 nM; with `Oc1ccc2c(c1)CCCC(c1ccc3ncsc3c1)=C2c1ccc(O[C@H]2CCN(CCCF)C2)cc1` [Example 178, 6-(1,3-benzothiazol-6-yl)-5-[4-[(3S)-1-(3-fluoropropyl)pyrrolidin-3-yl]oxyphenyl]-8,9-dihydro-7H-benzo[7]annulen-2-ol], 0.5 nM.
As to `CCOc1ncc(C2=C(c3ccc(O[C@H]4CCN(CCCF)C4)cc3)c3ccc(O)cc3CCC2)cc1F` [Example 170, 6-(6-ethoxy-5-fluoro-3-pyridyl)-5-[4-[(3S)-1-(3-fluoropropyl)pyrrolidin-3-yl]oxyphenyl]-8,9-dihydro-7H-benzo[7]annulen-2-ol], the IC50 worked out at 3 nM.
The figure for `Oc1ccc2c(c1)CCCC(c1cc(F)c(Cl)cc1Cl)=C2c1ccc(O[C@H]2CCN(CCCF)C2)cc1` [Example 162, 6-(2,4-dichloro-5-fluoro-phenyl)-5-[4-[(3S)-1-(3-fluoropropyl)pyrrolidin-3-yl]oxyphenyl]-8,9-dihydro-7H-benzo[7]annulen-2-ol] is 0.6 nM.
The figure for `COc1ccc(C2=C(c3ccc(O[C@H]4CCN(CCCF)C4)cc3)c3ccc(O)cc3CCC2)c(Cl)c1` [Example 89, 6-(2-chloro-4-methoxy-phenyl)-5-[4-[(3S)-1-(3-fluoropropyl)pyrrolidin-3-yl]oxyphenyl]-8,9-dihydro-7H-benzo[7]annulen-2-ol] is 0.2 nM; for `Oc1ccc2c(c1)CCCC(c1ccc(OC(F)(F)F)cc1F)=C2c1ccc(O[C@H]2CCN(CCCF)C2)cc1` [Example 117, 5-[4-[(3S)-1-(3-fluoropropyl)pyrrolidin-3-yl]oxyphenyl]-6-[2-fluoro-4-(trifluoromethoxy)phenyl]-8,9-dihydro-7H-benzo[7]annulen-2-ol] it is 0.5 nM.
With `Oc1ccc2c(c1)CCCC(c1ccc3[nH]ncc3c1)=C2c1ccc(O[C@H]2CCN(CCCF)C2)cc1` [Example 215, 5-[4-[(3S)-1-(3-fluoropropyl)pyrrolidin-3-yl]oxyphenyl]-6-(1H-indazol-5-yl)-8,9-dihydro-7H-benzo[7]annulen-2-ol] the figure was 1 nM.
Take `Oc1ccc2c(c1)CCCC(c1cncc(Cl)c1)=C2c1ccc(O[C@H]2CCN(CCCF)C2)cc1` [Example 86, 6-(5-chloro-3-pyridyl)-5-[4-[(3S)-1-(3-fluoropropyl)pyrrolidin-3-yl]oxyphenyl]-8,9-dihydro-7H-benzo[7]annulen-2-ol]: the IC50 is 0.4 nM.
Turning to `Cc1c(F)cccc1C1=C(c2ccc(O[C@H]3CCN(CCCF)C3)cc2)c2ccc(O)cc2CCC1` [Example 33, 6-(3-fluoro-2-methyl-phenyl)-5-[4-[(3S)-1-(3-fluoropropyl)pyrrolidin-3-yl]oxyphenyl]-8,9-dihydro-7H-benzo[7]annulen-2-ol], the IC50 amounted to 0.3 nM.
With `COc1ccc(C2=C(c3ccc(O[C@H]4CCN(CCCF)C4)cc3)c3ccc(O)cc3CCC2)c(C#N)c1` [Example 59, 2-[5-[4-[(3S)-1-(3-fluoropropyl)pyrrolidin-3-yl]oxyphenyl]-2-hydroxy-8,9-dihydro-7H-benzo[7]annulen-6-yl]-5-methoxy-benzonitrile] the figure was 0.1 nM; with `[O-][n+]1ccc(C2=C(c3ccc(O[C@H]4CCN(CCCF)C4)cc3)c3ccc(O)cc3CCC2)cc1` [Example 189, 5-[4-[(3S)-1-(3-fluoropropyl)pyrrolidin-3-yl]oxyphenyl]-6-(1-oxidopyridin-1-ium-4-yl)-8,9-dihydro-7H-benzo[7]annulen-2-ol], 12 nM.
On to `Oc1ccc2c(c1)CCCC(c1ccc3c(c1)OC(F)(F)C(F)(F)O3)=C2c1ccc(O[C@H]2CCN(CCCF)C2)cc1` [Example 196, 5-[4-[(3S)-1-(3-fluoropropyl)pyrrolidin-3-yl]oxyphenyl]-6-(2,2,3,3-tetrafluoro-1,4-benzodioxon-6-yl)-8,9-dihydro-7H-benzo[7]annulen-2-ol], for which the IC50 was found to be 1 nM.
With `Oc1ccc2c(c1)CCCC(c1ccccc1)=C2c1ccc(O[C@H]2CCN(CCCF)C2)cc1` [Example 214, 9-(4-{[(3S)-1-(3-fluoropropyl)pyrrolidin-3-yl]oxy}phenyl]-8-phenyl-6,7-dihydro-5H-benzo[7]annulen-3-ol] the figure was 0.1 nM.
The figure for `Oc1ccc(C2=C(c3ccc(O[C@H]4CCN(CCCF)C4)cc3)c3cc(O)ccc3CCC2)cc1` [Example 1, 5-[4-[(3S)-1-(3-fluoropropyl)pyrrolidin-3-yl]oxyphenyl]-6-(4-hydroxyphenyl)-8,9-dihydro-7H-benzo[7]annulen-3-ol] is 0.6 nM; for `CCOc1ccc(C2=C(c3ccc(O[C@H]4CCN(CCCF)C4)cc3)c3ccc(O)cc3CCC2)c(F)c1F` [Example 52, 6-(4-ethoxy-2,3-difluoro-phenyl)-5-[4-[(3S)-1-(3-fluoropropyl)pyrrolidin-3-yl]oxyphenyl]-8,9-dihydro-7H-benzo[7]annulen-2-ol] it is 0.3 nM.
On to `CN1CCOc2cc(C3=C(c4ccc(O[C@H]5CCN(CCCF)C5)cc4)c4ccc(O)cc4CCC3)ccc21` [Example 133, 5-[4-[(3S)-1-(3-fluoropropyl)pyrrolidin-3-yl]oxyphenyl]-6-(4-methyl-2,3-dihydro-1,4-benzoxazin-7-yl)-8,9-dihydro-7H-benzo[7]annulen-2-ol], for which the IC50 worked out at 1 nM.
The figure for `O=C(O)c1ccc2c(c1F)CCCC(c1ccc(Cl)cc1Cl)=C2c1ccc(O[C@H]2CCN(CCCF)C2)cc1` [Example 211, 6-(2,4-dichlorophenyl)-1-fluoro-5-[4-[(3S)-1-(3-fluoropropyl)pyrrolidin-3-yl]oxyphenyl]-8,9-dihydro-7H-benzo[7]annulene-2-carboxylic acid] is 0.7 nM; for `Cc1ccccc1C1=C(c2ccc(O[C@H]3CCN(CCCF)C3)cc2)c2ccc(O)cc2CCC1` [Example 57, 5-[4-[(3S)-1-(3-fluoropropyl)pyrrolidin-3-yl]oxyphenyl]-6-(o-tolyl)-8,9-dihydro-7H-benzo[7]annulen-2-ol] it is 0.2 nM; for `Oc1cccc(C2=C(c3ccc(O[C@H]4CCN(CCCF)C4)cc3)c3cc(O)ccc3CCC2)c1` [Example 2, 5-[4-[(3S)-1-(3-fluoropropyl)pyrrolidin-3-yl]oxyphenyl]-6-(3-hydroxyphenyl)-8,9-dihydro-7H-benzo[7]annulen-3-ol] it is 1 nM.
Consider `Oc1ccc2c(c1)CCCC(c1cccnc1)=C2c1ccc(O[C@H]2CCN(CCCF)C2)cc1` [Example 154, 5-[4-[(3S)-1-(3-fluoropropyl)pyrrolidin-3-yl]oxyphenyl]-6-(3-pyridyl)-8,9-dihydro-7H-benzo[7]annulen-2-ol], for which the IC50 was 0.4 nM.
With `Cn1cnc2cc(C3=C(c4ccc(O[C@H]5CCN(CCCF)C5)cc4)c4ccc(O)cc4CCC3)ccc21` [Example 187, 5-[4-[(3S)-1-(3-fluoropropyl)pyrrolidin-3-yl]oxyphenyl]-6-(1-methylbenzimidazol-5-yl)-8,9-dihydro-7H-benzo[7]annulen-2-ol] the figure was 19 nM; with `CC1(C)Cc2cc(C3=C(c4ccc(O[C@H]5CCN(CCCF)C5)cc4)c4ccc(C(=O)O)cc4CCC3)ccc2N1` [Example 174, 6-(2,2-dimethylindolin-5-yl)-5-[4-[(3S)-1-(3-fluoropropyl)pyrrolidin-3-yl]oxyphenyl]-8,9-dihydro-7H-benzo[7]annulene-2-carboxylic acid hydrochloride], 1 nM; with `Oc1ccc2c(c1)CCCC(c1ccc3c(c1)OC(F)(F)O3)=C2c1ccc(O[C@H]2CCN(CCCF)C2)cc1` [Example 134, 6-(2,2-difluoro-1,3-benzodioxol-5-yl)-5-[4-[(3S)-1-(3-fluoropropyl)pyrrolidin-3-yl]oxyphenyl]-8,9-dihydro-7H-benzo[7]annulen-2-ol], 0.1 nM.
With `C[Si](C)(C)c1ccc(C2=C(c3ccc(O[C@H]4CCN(CCCF)C4)cc3)c3ccc(O)cc3CCC2)cc1` [Example 173] the figure was 5 nM.
